Consider twelve compounds from the antibiotic and cytotoxicity screens of Wong et al. (2023).

For one assay, the system named is HSkMC. Briefly: cytotoxicity call (relative viability < 0.9). The following applies: 10 µM.
Another assay relates to HepG2. Description: cytotoxicity call (relative viability < 0.9). Particulars: 10 µM.
For the next assay, the system named is S. aureus RN4220. Briefly: growth inhibition call (relative growth <= 0.2). Particulars: 50 µM.

The other results are listed elsewhere or left out.

In the case of `C[C@H]1CN([C@@H](C)CO)S(=O)(=O)c2ccc(C#Cc3cccc(F)c3)cc2O[C@H]1CN(C)C(=O)CN1CCOCC1`, the cytotoxicity call with HSkMC and in the assay with HepG2 was “inactive” each time. Also, in the assay on S. aureus RN4220, the growth inhibition call is “inactive”.

For `NC(=O)C1CCN(C(=O)c2ccco2)CC1`, the cytotoxicity call in the assay on HSkMC and with HepG2 was “inactive” in each case. The growth inhibition call with S. aureus RN4220 was “inactive”.

For `CNC[C@H]1OCCCC[C@@H](C)Oc2ccc(NS(=O)(=O)c3c(C)noc3C)cc2C(=O)N([C@@H](C)CO)C[C@H]1C`, the cytotoxicity call with HSkMC and in the assay on HepG2 was “inactive” in each case. Besides, in the assay on S. aureus RN4220, the growth inhibition call was “inactive”.

For the compound `C[C@@H]1CCCCO[C@@H](CN(C)Cc2ccccc2)[C@@H](C)CN([C@@H](C)CO)C(=O)c2cc(NS(=O)(=O)c3cccs3)ccc2O1`, the cytotoxicity call in the assay on HSkMC and with HepG2 was “inactive” in each case. The growth inhibition call in the assay on S. aureus RN4220 is “inactive”.

Regarding `O=C(C[C@H]1C[C@H]2c3cc(NC(=O)Cc4ccncc4)ccc3O[C@H]2[C@@H](CO)O1)NCCc1ccccc1`, the cytotoxicity call in the assay with HSkMC and with HepG2 was “inactive” in each case. Moreover, in the assay with S. aureus RN4220, the growth inhibition call was “inactive”.

For the compound `Nc1ncnc(NCc2cccnc2)c1[N+](=O)[O-]`, the cytotoxicity call in the assay on HSkMC and with HepG2 was “inactive” throughout. The growth inhibition call with S. aureus RN4220 is “inactive”.

Take `COc1ccc(NC(=O)N(C)C[C@@H]2OCCCC[C@H](C)Oc3ccc(NC(=O)CCC(F)(F)F)cc3C(=O)N([C@H](C)CO)C[C@H]2C)cc1`: the cytotoxicity call with HSkMC and in the assay on HepG2 was “inactive” in each case. For the same compound, in the assay on S. aureus RN4220, the growth inhibition call was “inactive”.

Consider `C[C@@H]1CN([C@@H](C)CO)C(=O)c2c(c3ccccc3n2C)-c2ccccc2CO[C@@H]1CN(C)S(=O)(=O)c1cn(C)cn1`, for which the cytotoxicity call in the assay with HSkMC and in the assay with HepG2 was “inactive” in each case. In addition, the growth inhibition call with S. aureus RN4220 was “inactive”.

For the compound `CC(C)(C)OC(=O)C[C@@H]1CC=CC[C@@H](CC(=O)NCCO)C(=O)N[C@@H](Cc2c[nH]c3ccccc23)COC1=O`, the cytotoxicity call with HSkMC and in the assay with HepG2 was “inactive” throughout. For the same compound, the growth inhibition call in the assay with S. aureus RN4220 was “inactive”.

Consider `C=CC(=O)Nc1cccc(C)c1Nc1ncc2cc(-c3c(Cl)c(OC)cc(OC)c3Cl)ccc2n1`, for which the cytotoxicity call in the assay on HSkMC (human skeletal muscle cells) was “inactive”. The cytotoxicity call with HepG2 is “active”. The growth inhibition call in the assay with S. aureus RN4220 is “inactive”.

Regarding `C[C@H]1CN([C@@H](C)CO)C(=O)Cc2cc(NS(=O)(=O)c3ccc(Cl)cc3)ccc2O[C@@H]1CN(C)Cc1ccc(Cl)c(Cl)c1`, the cytotoxicity call with HSkMC and in the assay with HepG2 was “inactive” each time. Moreover, the growth inhibition call in the assay with S. aureus RN4220 is “inactive”.

For `O=C1CSC(=O)N1`, the cytotoxicity call in the assay with HSkMC and in the assay on HepG2 was “inactive” each time. Also, the growth inhibition call in the assay on S. aureus RN4220 is “inactive”.
